Data: PubChem BioAssay AID1346428 (National Center for Advancing Translational Sciences (NCATS), 2018)
Where “and” joins values, the source holds several entries; their conditions need not be identical. Equal entries are not always repeated. About 1,200 (2.5%) of roughly 48,000 compounds were called active. Inconclusive results (about 2%) are left out.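 How the source made its calls: active means activation of at least 60% and not above a set upper limit (about 1 call in 100 departs from these limits); inconclusive means activation of 40% to 60%, or above that upper limit; inactive means activation under 40%.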 The list shows a part of the results.

Target: Probable G-protein coupled receptor 32 (Homo sapiens) (UniProt O75388)
Sequence of UniProt O75388 (O75388 whole entry, looked up): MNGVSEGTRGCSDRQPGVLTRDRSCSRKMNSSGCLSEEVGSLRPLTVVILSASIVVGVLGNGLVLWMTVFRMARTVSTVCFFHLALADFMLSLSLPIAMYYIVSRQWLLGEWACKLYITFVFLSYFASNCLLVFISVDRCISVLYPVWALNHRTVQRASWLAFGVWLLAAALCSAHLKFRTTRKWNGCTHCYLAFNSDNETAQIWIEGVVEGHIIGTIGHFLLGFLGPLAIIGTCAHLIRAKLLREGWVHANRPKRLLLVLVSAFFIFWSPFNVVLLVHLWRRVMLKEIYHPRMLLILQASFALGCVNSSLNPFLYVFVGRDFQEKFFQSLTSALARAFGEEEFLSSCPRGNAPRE
Assay: qHTS for Agonists of Human Resolvin D1 Receptor DRV1; further: 0% is about no effect
Conditions: CHO-K1 GPR32 beta-arrestin PathHunter luminescence, 90 min; at 76.9 µM; active compounds read high; zero percent set by DMSO-only wells
Outline: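 Agonism was scored by beta-Gal fragment complementation (chemiluminescent read, 1 h detection at ambient temperature) reporting beta-arrestin binding to GPR32 in engineered CHO-K1 cells. Compound treatment lasted 90 min at 37 C, normalized to a DMSO basal control.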

activation, inactive:
O=C(COc1ccc(Cl)cc1)Nc1nnc(S(=O)(=O)N2CCCCCC2)s1 5.2%
CCOC(=O)c1c(NC(=O)c2cc(-c3ccc(OC)c(OC)c3)on2)sc(C)c1C -5.13%
CCN(CC)CCCNC(=O)CCC(=O)NNc1nc2ccccc2c2nc(C)nn12 26%
COc1ccccc1N1CCN(C(CNC(=O)C(=O)NCc2cccnc2)c2cccnc2)CC1 (stereo not drawn) 4.66%
C[C@](N)(Cc1ccc(O)cc1)C(=O)O -3.23% and -2.04%
Cc1cc(NC(=O)Nc2nnc(N3CCCCCC3)s2)ccc1Br 6.04%
COc1cc2c(cc1OC)[C@@H]1CC(=O)[C@@H](CC(C)C)CN1CC2 4.04%
Cc1ccc(NC(=O)c2oc3c(c2C)-c2[nH]ncc2CC3)c(Cl)c1 3.1%
Cc1ccc(-c2nn(-c3ccccc3)c3c2cnc2ccccc23)cc1C -10.8%
Cc1ccc(CNC(=O)c2ccc(Nc3nc4ccccc4n4nnnc34)cc2)cc1 4.54%
Cc1ccc(S(=O)(=O)N(CCc2ccccc2)CC(=O)Nc2ccccc2C)cc1 -5.35%
Cn1cnc(S(=O)(=O)N2CCCC(C(=O)NCc3ccc(F)cc3)C2)c1 (stereo not drawn) -6.15%
COc1ccc(OC)c(-c2noc(N3CCN(c4ccc(Cl)cc4)CC3)n2)c1 -1.17%
CC(C)c1ccc(NS(=O)(=O)c2cc(Br)cc3c2N(C(=O)C2CC2)CC3)cc1 2.84%
CCOc1ccc(NC(=O)C(=O)NCCc2csc(-c3ccc(C(F)(F)F)cc3)n2)cc1 -14.7%
NNC(=O)CP(=O)(c1ccccc1)c1ccccc1 -1.74%
COc1ccc(CCNC(=O)c2ccc3c(c2)N(Cc2ccccc2)CCS3)cc1OC -4.63%
Cc1ccc(C(=O)N2CCn3c4c(c5cc(C)ccc53)CCCC42)cc1 (stereo not drawn) -29.9%
COC(=O)c1ccc(NC(=O)CN(C)S(=O)(=O)c2ccc(Br)s2)cc1 27.4%
COc1cccc(-n2c(SCc3ccc(F)cc3)nc3c([nH]c4ccccc43)c2=O)c1 -46.9%
Cc1ccc2nc(-c3ccc(Cl)s3)c(Nc3ccc4c(c3)OCCO4)n2c1 -30.1%
Cc1nn2c(C)c(C(=O)NCc3ccc(OC(C)C)cc3)cnc2c1-c1ccc(F)cc1 -2.32%
COc1ccc(Cn2ccnc2SCC(=O)Nc2nnc(C)s2)cc1 -16.3%
Cc1ccc(CNC(=O)c2ccc(N3CCCC3)c(NC(=O)Nc3ccc(F)c(Cl)c3)c2)cc1 -13.5%
Cc1ccc2c(c1)-c1c(c(C(=O)N3CCN(c4cc(C)ccc4C)CC3)nn1C)CS2 -33.1%
CCn1c(=O)cc(OCC(=O)N2CCN(c3cccc(C)c3C)CC2)c2ccccc21 2.25%
Cc1cccc(NC(=O)CN2C(=O)C(c3ccc(F)cc3)=NC23CCCCCC3)c1 -5.05%
COc1cccc(CNC(=O)CN2C(=O)COc3ccc(S(=O)(=O)N4CCOCC4)cc32)c1 -17.7%
CCN(CCCNC(=O)c1nn(-c2ccc(C)cc2)c(=O)c2c1c1ccccc1n2C)c1cccc(C)c1 1.01%
Cc1cc(C)c(NC(=O)Cn2c(=O)n(Cc3ccc(C(=O)NCc4ccc5c(c4)OCO5)cc3)c(=O)c3ccccc32)c(C)c1 -9.6%
Cc1ccc(CNC(=O)C(C)n2nc(C)c3sc4ccccc4c3c2=O)cc1 (stereo not drawn) -24.2%
CNCCNS(=O)(=O)c1cccc2cnccc12 -11.2%
COc1ccc(NC(=O)Cn2c(=O)c3ccccc3n3nncc23)c(OC)c1 5.95%
CC(=O)c1c(C)oc2c1cc(NS(=O)(=O)c1ccc(C(C)(C)C)cc1)c1ccccc12 25.7%
COC(=O)c1ccccc1NC(=O)CN1C(=O)COc2ccc(Cl)cc21 -2.05%
COc1ccc(NC(=O)c2cc(S(=O)(=O)N3CCCC3)ccc2OC)cc1 -17%
CCNC(=O)[C@H]1O[C@@H](n2cnc3c(N)nc(NCCc4ccc(CCC(=O)O)cc4)nc32)[C@H](O)[C@@H]1O 0.779%
COc1cccc(C(=O)Oc2c(Sc3ccc(C)cc3)c(C)nn2C(C)(C)C)c1OC -7.99%
CC(C)Cc1nn2c(=O)cc(COC(=O)c3ccc(NC(=O)C4CCCCC4)cc3)nc2s1 -10%
CCOc1ccccc1NC(=O)c1ccc(F)c(S(=O)(=O)N2CCN(c3ccc(F)cc3)CC2)c1 -8%
CCOc1ccc(C(=O)NCCSc2c(C)[nH]c3ccccc23)cc1OCC -10.3%
CCOc1ccc(NC(=O)c2cc(C)nc3c2c(C)nn3-c2ccc(C)cc2)cc1 -11%
Cc1cccc(C(=O)N2CCc3cc(CNC(=O)CSc4ccccc4)ccc32)c1 -1.87%
Cc1cccc(C)c1NC(=O)c1ccccc1C(=O)O -16.6%
CCOc1ccc(C(=O)NCC(c2cccs2)S(=O)(=O)c2ccccc2)cc1 (stereo not drawn) 21.5%
COc1ccc(Nc2nc3ccc(Cl)cc3nc2-n2nc(C)cc2C)cc1 -20.2%
Cc1ccc2cccc(NC(=O)c3cccc4c(Br)cccc34)c2n1 -5.52%
COc1cccc(CNS(=O)(=O)c2ccc3c(c2)CC(C)N3C(=O)C2CCC2)c1 (stereo not drawn) 10.9%
O=C(NCc1cccc(Cl)c1)c1cc2c(s1)-c1ccccc1SC2 -11%
O=C(Cn1c(=O)n(-c2ccc(Cl)cc2)c(=O)c2c3c(sc21)CCCCC3)Nc1cccc(Cl)c1 -4.09%
COc1ccc(C)cc1NC(=O)C(=O)NCC(c1cccnc1)N1CCN(c2ccccc2F)CC1 (stereo not drawn) -36.4%
Cc1cc(C)c2nc(N3CCCC(C(=O)NCc4ccccc4F)C3)sc2c1 (stereo not drawn) -0.0112%
COc1ccc(N2CCN(C(=O)c3ccc4c(c3)N(Cc3cccc(Cl)c3)C(=O)c3ccccc3S4(=O)=O)CC2)cc1 -24.5%
